Among the data in article PMC12013732 are binding values, retold here.

By UniProt entry, the sequences of proteins in these tests, tags left out. Where a name states a change or a piece, a line headed by the entry shows the natural chain unless it says otherwise.
UniProt P21796: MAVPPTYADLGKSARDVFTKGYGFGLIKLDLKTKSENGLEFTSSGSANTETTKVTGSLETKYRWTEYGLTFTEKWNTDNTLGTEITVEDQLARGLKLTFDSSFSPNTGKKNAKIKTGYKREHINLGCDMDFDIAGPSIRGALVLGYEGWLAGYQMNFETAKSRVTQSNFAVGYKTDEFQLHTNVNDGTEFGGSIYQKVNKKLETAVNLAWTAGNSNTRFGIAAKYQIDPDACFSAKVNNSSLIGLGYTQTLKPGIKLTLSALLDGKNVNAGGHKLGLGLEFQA

The target in test [1] is T1, Flag-TRIM65 (full length) (UniProt Q6PJ69).
T1 sequence: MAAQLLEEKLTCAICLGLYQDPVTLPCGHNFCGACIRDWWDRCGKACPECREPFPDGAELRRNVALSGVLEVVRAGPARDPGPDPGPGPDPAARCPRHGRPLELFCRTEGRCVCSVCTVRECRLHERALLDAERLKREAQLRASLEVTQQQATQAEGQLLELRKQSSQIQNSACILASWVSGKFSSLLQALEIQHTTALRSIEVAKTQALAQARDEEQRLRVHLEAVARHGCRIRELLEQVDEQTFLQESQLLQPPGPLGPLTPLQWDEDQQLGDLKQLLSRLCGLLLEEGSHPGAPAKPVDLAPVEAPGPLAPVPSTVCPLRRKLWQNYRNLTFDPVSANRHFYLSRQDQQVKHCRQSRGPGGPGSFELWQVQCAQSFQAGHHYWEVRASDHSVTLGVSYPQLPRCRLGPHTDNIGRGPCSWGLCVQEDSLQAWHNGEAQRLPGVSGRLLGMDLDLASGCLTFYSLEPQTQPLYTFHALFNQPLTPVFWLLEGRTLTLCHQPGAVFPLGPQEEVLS
Put plainly: co-IP; lysates of co-transfected HEK293T cells, western blot; IgG as negative control. Background: A western blot detects proteins with antibodies after separation by electrophoresis.

The target in test [2] is T2, GST-TRIM65 fusion protein (UniProt Q6PJ69).
T2 sequence: T1 sequence
The test can be described thus: pull-down; purified GST or GST-TRIM65 on beads incubated with lysates of HEK293T cells transfected with 10 µg HA-VDAC1 plasmid; western blot; only the target purified.

Test [3] concerns the target T3, TRIM65 (endogenous, HK-2 cells) (human (endogenous in HK-2)) (UniProt Q6PJ69).
T3 sequence: T1 sequence
Put plainly: co-IP; lysates of HK-2 cells, western blot; IgG as negative control.

The target of test [4] is T4, TRIM65 (yeast two-hybrid fusion) (UniProt Q6PJ69).
T4 sequence: T1 sequence
The test can be described thus: two-hybrid; yeast two-hybrid system.

The target in a further test is HA-VDAC1 (UniProt P21796). The test can be described thus: co-IP; lysates of co-transfected HEK293T cells, western blot; IgG as negative control.

Results are given in words; binding and its absence hold for the method and conditions named. For some of these results: In cells and extracts the contact can be indirect. Some results given as binding are weak or reduced against the parent protein; the word gives no strength. For some of these results: Tags and fused reporters may be left off the sequences shown.

In the case of “GFP-VDAC1 deletion mutant, amino acids 1-131 (from UniProt P21796 1-131) (domain or fragment)”, in test [1], the binding entry is given as “binds”.

Consider “GFP-VDAC1 deletion mutant, amino acids 132-283 (from UniProt P21796 132-283) (domain or fragment)”, for which the binding entry in test [1] is recorded as “no binding”.

As to HA-VDAC1 (from UniProt P21796 1-283), the binding result in test [1] and in test [2] was “binds” each time.

In the case of “VDAC1 (endogenous, HK-2 cells) (from UniProt P21796 1-283)”, the binding entry in test [3] is reported as “binds”.

As to “VDAC1 (yeast two-hybrid fusion) (from UniProt P21796 1-283)”, the binding entry in test [4] is listed as “binds”.

B1: Flag-TRIM65 (full length) (protein, UniProt Q6PJ69 1-517)
chain: T1 sequence
With B1, the binding result in the test with HA-VDAC1 is recorded as “binds”.
